Assay results published in the supplement of paper PMC11348887.
Counter-ions that a name gives are not always drawn. Some of the results follow. Rule as the data show it: active = -2 or less and inactive = the rest. Most values come without repeats; read them as rough.

These molecules were tested on hPSC-derived cortical neurons (WA09) (assay: nuclei number (viability) z-score; higher = more surviving cells). Details: 5 µM; treatment: days 7-14 after plating, readout day 21.
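Also: nuclei counted from DAPI counterstain by automated high-content image analysis, four fields per well at ×20 in 384-well plates, with sequential b-score then z-score normalization.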

Row | Structure (SMILES) | nuclei number (z-score)
1 | Nc1[nH]cnc2ncnc1-2 [Adenine HCl] | inactive: -0.0203
2 | OC(Cn1cncn1)(Cn1cncn1)c1ccc(F)cc1F [Fluconazole] | inactive: -0.609
3 | NCCc1c[nH]cn1 [Histamine 2HCl] | inactive: 0.35
4 | NCCc1c[nH]cn1 [Histamine Phosphate] | inactive: 0.766
5 | Cc1ccc(S(=O)(=O)c2ccc([N+](=O)[O-])o2)cc1 | active: -3.2
6 | Cc1cn[nH]c1 [Fomepizole] | inactive: 5.01
7 | O=C1NC(=O)C(c2cnc3ccccn23)=C1c1cn2c3c(cc(F)cc13)CN(C(=O)N1CCCCC1)CC2 | active: -2.44
8 | COc1cc2ncnc(Sc3nnc(C)s3)c2cc1OC | inactive: -0.951
9 | O=C(NC[C@H](O)CN1CCc2ccccc2C1)c1cc(NC2COC2)ncn1 | inactive: 0.579
10 | CNC1CCCN(c2c(F)cc3c(=O)c(C(=O)O)cn(C4CC4)c3c2OC)C1 (stereo unspecified) [Balofloxacin] | inactive: 0.836
11 | CC[C@H]1[C@@H](O)[C@@H]2[C@H](CC[C@]3(C)[C@@H]([C@H](C)CCC(=O)O)CC[C@@H]23)[C@@]2(C)CC[C@@H](O)C[C@@H]12 [Obeticholic Acid] | inactive: 0.0866
12 | C[C@@H](Oc1ccc2[nH]nc(/C=C/c3cnn(CCO)c3)c2c1)c1c(Cl)cncc1Cl | inactive: -0.106
13 | C[C@H]1O[C@H](O[C@H]2[C@H](O)[C@@H](O)[C@@H](O[C@H]3[C@H](O)[C@@H](O)C(O)O[C@@H]3CO)O[C@@H]2CO)[C@H](O)[C@@H](O)[C@@H]1N[C@H]1C=C(CO)[C@@H](O)[C@H](O)[C@H]1O (stereo partly specified) [Acarbose] | inactive: -0.338
14 | O=c1[nH]c(C2CCCN2)nc2c1oc1ccc(Cl)cc12 (stereo unspecified) | inactive: 2.67
15 | N=C(N)NC(=N)NCCc1ccccc1 [Phenformin HCl] | inactive: 0.0689
16 | CO[C@H]1/C=C/O[C@@]2(C)Oc3c(C)c(O)c4c(O)c(c(/C=N/N5CCN(C6CCCC6)CC5)c(O)c4c3C2=O)NC(=O)/C(C)=C\C=C\[C@H](C)[C@H](O)[C@@H](C)[C@@H](O)[C@@H](C)[C@H](OC(C)=O)[C@@H]1C [Rifapentine] | inactive: 0.847
17 | CC(C)Oc1ccc(-c2nc(-c3cccc4c3CC[C@@H]4NCCO)no2)cc1C#N [Ozanimod (RPC1063)] | inactive: -0.136
18 | CN1CCC(=C2c3ccccc3C=Cc3ccccc32)CC1 [Cyproheptadine HCl] | inactive: -1.53
19 | CN1CCC(=C2c3ccccc3C=Cc3ccccc32)CC1 [Cyproheptadine hydrochloride] | inactive: -0.704
20 | O=C(O)[C@]1(Cc2cccc(Nc3nccs3)n2)CC[C@@H](Oc2cccc(Cl)c2F)CC1 | inactive: 0.485
21 | COc1cc2c(Nc3ccc(NC(=O)c4ccccc4)cc3)ncnc2cc1OCCCN1CCOCC1 | inactive: 0.477
22 | CC(=O)Nc1ccc(C(=O)Nc2ccccc2N)cc1 [CI994 (Tacedinaline)] | active: -5.44

Row | Structure (SMILES) | nuclei number (z-score)
23 | CCCc1cc(C(N)=S)ccn1 [Protionamide] | inactive: -0.859
24 | COc1cccc2c1c(O)c(C(=O)N(C)c1ccc(C(F)(F)F)cc1)c(=O)n2C [Tasquinimod] | inactive: 0.827
25 | CC(=O)S[C@@H]1CC2=CC(=O)CC[C@]2(C)[C@H]2CC[C@@]3(C)[C@@H](CC[C@@]34CCC(=O)O4)[C@H]12 [Spironolactone] | inactive: -0.00721
26 | C#Cc1cccc(Nc2ncnc3cc(OC)c(OCCCCCCC(=O)NO)cc23)c1 | active: -4.34
27 | CN1CCN(C(=O)/C=C/c2ccc([N+](=O)[O-])o2)CC1 | inactive: -0.655
28 | CC(C)(O)[C@H]1CC[C@@](C)([C@H]2[C@@H](O)C[C@@]3(C)[C@@H]4C[C@H](O[C@@H]5O[C@H](CO)[C@@H](O)[C@H](O)[C@H]5O)[C@H]5C(C)(C)[C@@H](O[C@@H]6OC[C@@H](O)[C@H](O)[C@H]6O)CC[C@@]56C[C@@]46CC[C@]23C)O1 [Astragaloside A] | inactive: 0.0867
29 | C=C1CC[C@H](O)C/C1=C/C=C1\CCC[C@]2(C)[C@@H]([C@H](C)CCCC(C)C)CC[C@@H]12 [Vitamin D3] | inactive: 2.1
30 | CCCCCN(C)CCC(O)(P(=O)(O)O)P(=O)(O)O [Ibandronate sodium] | inactive: -0.167
31 | O=C(O)C1=C[C@@H](O)[C@@H](O)[C@H](O)C1 [Shikimic Acid] | inactive: -0.741
32 | C1N2CN3CN1CN(C2)C3 [Methenamine] | inactive: 0.496
33 | C=C(C)[C@@H]1CC[C@]2(C(=O)O)CC[C@]3(C)[C@H](CC[C@@H]4[C@@]5(C)CC[C@H](O)C(C)(C)[C@@H]5CC[C@]43C)[C@@H]12 [Betulinic acid] | inactive: 0.0241
34 | CC[C@]12C=CCN3CC[C@@]4(c5cc([C@@]6(C(=O)OC)C[C@@H]7C[C@@H](C(C)(F)F)CN(Cc8c6[nH]c6ccccc86)C7)c(OC)cc5N(C)[C@H]4[C@@](O)(C(=O)OC)[C@@H]1OC(C)=O)[C@@H]32 [Vinflunine Tartrate] | active: -6.72
35 | c1ccc2c(c1)CCCC2C1=NCCN1 (stereo unspecified) [Tetrahydrozoline HCl] | inactive: -0.629
36 | CC(C)NC(=O)COc1cccc(-c2nc(Nc3ccc4[nH]ncc4c3)c3ccccc3n2)c1 | active: -4.78
37 | CNc1ncnc2c1ncn2[C@@H]1O[C@H](CO)[C@@H](O)[C@H]1O [N6-methyladenosine (m6A)] | inactive: 0.254
38 | CC(C)OC(=O)C(C(=O)OC(C)C)=C1SC=CS1 [Malotilate] | inactive: 0.436
39 | CS(=O)(=O)c1ccc([C@@H](O)[C@@H](CF)NC(=O)C(Cl)Cl)cc1 [Florfenicol] | inactive: -0.373
40 | CCN(CC)CCCC(C)Nc1ccnc2cc(Cl)ccc12 (stereo unspecified) [Chloroquine Phosphate] | inactive: 0.912
41 | O=C(COc1cccc2c(=O)[nH]ccc12)c1ccccc1 | active: -2.74
42 | CCNC(=O)[C@H]1O[C@@H](n2cnc3c(N)nc(NCCc4ccc(CCC(=O)O)cc4)nc32)[C@H](O)[C@@H]1O | inactive: -0.587
43 | CCCCCOc1ccc(-c2ccc(-c3ccc(C(=O)N[C@H]4C[C@@H](O)[C@@H](O)NC(=O)[C@@H]5[C@@H](O)[C@@H](C)CN5C(=O)[C@H]([C@@H](C)O)NC(=O)[C@H]([C@H](O)[C@@H](O)c5ccc(O)cc5)NC(=O)[C@@H]5C[C@@H](O)CN5C(=O)[C@H]([C@@H](C)O)NC4=O)cc3)cc2)cc1 | inactive: 0.345
44 | CC(C)c1nc(N(C)S(C)(=O)=O)nc(-c2ccc(F)cc2)c1/C=C/[C@@H](O)C[C@@H](O)CC(=O)O [Rosuvastatin Calcium] | active: -4.66

Row | Structure (SMILES) | nuclei number (z-score)
45 | Nc1ccc(S(=O)(=O)NC(=O)c2ccccc2)cc1 [Sulfabenzamide] | inactive: -0.385
46 | O=C1NC(=O)/C(=C/c2ccc3nccc(-c4ccncc4)c3c2)S1 | inactive: -0.995
47 | CCCc1ncc(C[n+]2ccccc2C)c(N)n1 [Amprolium HCl] | inactive: -0.0386
48 | OC[C@H]1OC(O)[C@H](O)[C@@H](O)[C@@H]1O (stereo partly specified) [Dextrose] | inactive: 1.51
49 | O=C1NC(=O)C(c2ccccc2[N+](=O)[O-])=C1Nc1ccc(O)c(Cl)c1 | inactive: 0.154
50 | COCCOc1nc(-c2ccc(Cl)c(Cl)c2)n(-c2ccc(NC(=O)CCl)cc2)n1 [MI-2 (MALT1 inhibitor)] | active: -2.77
51 | CC(C(=O)O)c1cccc(Oc2ccccc2)c1 (stereo unspecified) [Fenoprofen Calcium] | inactive: 1.13
52 | CC(C(=O)O)c1cccc(Oc2ccccc2)c1 (stereo unspecified) [Fenoprofen calcium hydrate] | inactive: -0.0231
53 | Oc1ccc(C2CNCCc3c2cc(O)c(O)c3Cl)cc1 (stereo unspecified) [Fenoldopam mesylate] | inactive: 1.72
54 | C[C@H](NCc1ccc(OCc2cccc(F)c2)cc1)C(N)=O [Safinamide Mesylate] | inactive: 0.588
55 | CC(=O)OCC(=O)NCCCOc1cccc(CN2CCCCC2)c1 [Roxatidine Acetate HCl] | inactive: -0.593
56 | CCn1cc(C(=O)O)c(=O)c2cc(F)c(N3CCNCC3)nc21 [Enoxacin] | inactive: 2.54
57 | OC[C@@H](O)[C@@H](O)[C@H](O)[C@H](O)CO [D-Mannitol] | inactive: 0.427
58 | CC[C@H]1OC(=O)[C@H](C)[C@@H](O[C@H]2C[C@@](C)(OC)[C@@H](O)[C@H](C)O2)[C@H](C)[C@@H](O[C@@H]2O[C@H](C)C[C@H](N(C)C)[C@H]2O)[C@](C)(O)C[C@@H](C)C(=O)[C@H](C)[C@@H](O)[C@]1(C)O [Erythromycin] | inactive: 4.15
59 | CC(C(=O)O)c1ccc(CC2CCCC2=O)cc1 (stereo unspecified) [Loxoprofen] | inactive: 0.383
60 | O=C(O)CCc1nc(-c2ccccc2)c(-c2ccccc2)o1 [Oxaprozin] | inactive: -0.418
61 | O=C(O)CCCc1c[nH]c2ccccc12 [3-Indolebutyric acid (IBA)] | inactive: -0.458
62 | O=C(c1cc(Cc2n[nH]c(=O)c3ccccc23)ccc1F)N1CCN(C(=O)C2CC2)CC1 | inactive: -0.487
63 | O=C1c2ccccc2C(=O)C1c1ccccc1 [Phenindione] | inactive: -0.212
64 | Clc1ccc2c(c1)C(N1CCNCC1)=Nc1ccccc1O2 [Amoxapine] | inactive: 4.32
65 | c1ccc(CC2=NCCN2)cc1 [Tolazoline HCl] | inactive: 0.111
66 | OCCN1CCN(CCCN2c3ccccc3Sc3ccc(C(F)(F)F)cc32)CC1 [Fluphenazine dihydrochloride] | active: -3.66
